In the supplement of paper PMC11417369:
The list shows a part of the results.

system: PfAP2-HC AP2 domain (GST-tagged); assay: gcPBM binding intensity (ln(normalized median fluorescence intensity)); higher = stronger DNA binding
In short: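 Binding intensity is the highest Masliner-normalised natural-log median intensity over replicate spots in either probe orientation. To obtain it, GST-tagged P. falciparum DNA-binding domains made in E. coli were incubated for 1 h on an Agilent 4 × 180k array of primer-extended double-stranded 36-bp intergenic genomic probes plus negative controls. Detection used Alexa488 anti-GST antibody with scanning at 488 nm.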

Sequence	gcPBM binding intensity (ln)
TATATATAGAAACACACACACACATATATATATATA [CACACA_site4116]	10.3
AAAATTTAATATAATGCACACATAAAAAAAAAATCA [CACACA_site7882]	9.79
AATATCAATATTATATGTACTTATAATTTCAATGTA [XGTACX_site2423]	9.59
TAAATTTATTAATCAAGTACAAAATAAATTTTTATA [XGTACX_site2745]	9.26
ATATATTTTTAATTTGCATGTAGTAAAGCCTTAAAT [TGCATGCA_site593]	9.44
CATCAAGTGAATTGTTGTACTTTACATTGTTTTTAT [XGTACX_site7261]	10.2
TATAAATTTTGTTTAGCACACACACCGACATACATA [CACACA_site9033]	10.6
ATGTTGTACAGACACACACACAAAAAAAAAATAAAA [CACACA_site7184]	10.2
ATATATATATATATATGTACATACATACAATCATAT [XGTACX_site6410]	10.1
CTTACATATTACATATGTACATATACACCTTATGTC [XGTACX_site4679]	9.89
TATAATAGCTTCTTTACACACACCATTTTTTTTTTT [CACACA_site1456]	10.2
ATATATTTACTTAATACACACAAAAAAAAAAAAAAA [CACACA_site3657]	9.47
TTTAATTTTTATATAACACACATATTGGAATTATGT [CACACA_site734]	9.9
TTAAATGTGAAGTGAATACACACCTAATAAATATAA [CACACA_site3194]	9.5
TTTTTTACATACAGAAATATATAATATAAAATAAAT [GTGCAC_negctrl_site278]	9.36
TTATGTATTACCTGCCGTACTTCTAAAATAATTAAA [XGTACX_site1716]	9.5
TGTTACAAAAAATAATGTACTTAATATATATATATA [XGTACX_site1016]	9.43
TATCTTCATTTTTTTGGTACGCACGCAAATATGGCT [XGTACX_site3107]	9.65
ACTGTCATTTATTGTAGTACGTCAATTTATTACATT [XGTACX_site2749]	10.3

Sequence	gcPBM binding intensity (ln)
TATAATATGTTATATACACACATTATAAAATACACA [CACACA_site6742]	9.84
TAATAATAAATAAAATGTACATATGAACAAATAAGT [XGTACX_site6710]	9.97
AAAAAAAAAATTAATTGTACTAAAAAAATATTATAT [XGTACX_site8903]	9.48
TGAATATTCATGTGTGTGCGCATGTTGTTAGACCAT [GTGCAC_site9869]	10.4
TGTTTTCTTGATTATTGTACTTTAATTAGTAATATG [XGTACX_site8674]	9.64
TAAATACATTTATGTACACACACATAGATGTATATT [CACACA_site5618]	9.93
AAAAATATTATAAGCACACATATATATATATATATA [CACACA_site2458]	9.53
TTATATATAATATGACGTACAATTATACATTTTATG [XGTACX_site7598]	9.58
ATAAATATTTATAACAGTACATATTTACTATCCTAA [XGTACX_site4497]	9.56
ACGATTAAATCGATAATACACACTAAATGTAAAACA [CACACA_site119]	9.84
TATACACATATTTTTACACACATATTTTTTCATATA [CACACA_site7244]	9.98
TATATTATTTTTAGAAGTACTTATTGTTATAATTCT [XGTACX_site1015]	9.57
AGAAAAGATAAAAATAGTACATATATATTTACTTAT [XGTACX_site7820]	9.6
CTCCTTTCAAAAAAATGTACATGTTTACATTTCAAG [XGTACX_site7342]	9.55
TATATCAAAATACATACACACATTTGTATTTACATT [CACACA_site5485]	9.87
ATTTTAATTTGTTATACACACACAAAAAAAATTATA [CACACA_site9306]	9.89
TTTTTTTTTAATCATGCACACTGTTAAAAGAATAAA [CACACA_site4817]	9.29
TATAAAAAAATATATATATATATTATATGTGTAGAA [TGCATGCA_negctrl_site391]	9.78
ATTTATTTGAAGAATTGTACTAAATTATATAGCGGT [XGTACX_site4998]	9.51

Sequence	gcPBM binding intensity (ln)
TACATTTATACTACTGCATTCAAAAAAAATAAAAAA [TGCATGCA_negctrl_site157]	9.42
TGCTTATTTAGAATTGTGCACAGCGAATATTCTGTT	9.73
GAATCCTTAATATGAACACACAAATATATTACCCAT [CACACA_site186]	9.83
TTTTGTTATTTTTCAGTGCAATATGATAATAATATA	9.51
TCTTTTTAACAAAAAAAAAAAAAAAAAAAAAAATTA [CACACA_negctrl_site1637]	9.12
AGAATTTTATTATATTGTACTTTTTATAAACCTTGT [XGTACX_site7495]	9.61
TAGGAAAAAAATACAGTGCAATTTTTATATAAATAA [GTGCAC_site9979]	9.59
TTTTTTTTTTTTTTGTGTACTAATATTATAAATTTT [XGTACX_site4405]	9.42
TTTATATAAATCAAATGTACATATTCCAAATATATA [XGTACX_site8515]	9.44
TACATATTTTATAACTGTACTTTTTTATTATCCAAT [XGTACX_site5396]	9.66
TTTTTTTTTTCAAATACATGCATTTATGTATAATAC [TGCATGCA_site722]	9.53
TATTCTAATATATGCATACACACAAATGTGAATATA [CACACA_site2143]	9.66
CACATTATGTATCATACACACAAATAAATATAGAAT [CACACA_site609]	10
TTTATATGTATTAAGTGTACACATATAATGTGTTTT [XGTACX_site4890]	9.73
TTTTTTTTTTTTTTTACACACACAAAATATTATATG [CACACA_site2471]	9.88
TATTATTTACCTTGCTAGTTCGTTCCAAATTTTATG [XGTACX_negctrl_site197]	9.81
TATATTATTCATTAAGCACACATTATTTTTATAATA [CACACA_site6056]	9.69
ATGTTTGATGCTACACGTACACACCTTGCAAATATT [XGTACX_site1644]	9.88
AAAACTATAATAAAAGGTACACATTTATTTTTTTCT [XGTACX_site730]	9.68
